Inconclusive means that the source gave no clear call. Such entries were picked first, then a sample of the others. Potencies of inconclusive entries are doubtful fits and often do not repeat. Calls of active or inactive are those of the source. The call rests on the fitted dose curve; in most records, active means well fitted cell-killing curve with a large enough effect; inconclusive means small, poorly fitted or top-dose-only effect, or effect the other way; inactive means no such curve, though single readings can be large or run the other way.
What was measured:
[1] = Viability qHTS for spleen associated tyrosine kinase inhibitor (SYKi) naive MV4-11 cells (AID 1963823); conditions: MV4-11 AML viability, CellTiter-Glo luminescence, 72 h; series mostly up to 45 µM; further: nearly all actives have a fitted effect of over 40% in size
Method in brief: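 qHTS, SYK inhibitor-naive MV4-11; 500 cells/well; 72 hr compound exposure, 37 C; CellTiter-Glo added, 10 min RT; luminescence read.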

[2] = Viability qHTS for spleen associated tyrosine kinase inhibitor (SYKi) drug resistant MV4-11 cells (AID 1963824); further: nearly all actives have a fitted effect of over 35% in size
Method in brief: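 SYK inhibitor-resistant MV4-11 AML cells, 500 per well, added to predispensed compounds and incubated 72 hr at 37 C, 5% CO2. Viability measured by CellTiter-Glo luminescence after 10 min at room temperature.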
Potency means the concentration at half of the fitted maximal effect; tags describe the fitted curve by direction and shape.

Row | SMILES | Potency [1] | Potency [2]
1 | C/C=C/C=C/C=C/C(=O)O[C@@H]1C=C2COC(=O)[C@]2(O)[C@@]2(C)CCCC(C)(C)[C@H]12 | inconclusive: 5.63 µM [cytotoxic, partial curve] | inconclusive: 3.99 µM [cytotoxic, partial curve]
2 | CCOC(=O)CSc1nc2c(sc3ccccc32)c(=O)n1CCCN1CCCC1 | inconclusive: 18.4 µM [cytotoxic, partial curve, poor fit] | inconclusive: 20.6 µM [cytotoxic, single point]
3 | COc1ccc(C2COc3cc(O)ccc3C2)c(O)c1OC (stereo unspecified) | inconclusive: 20.6 µM [cytotoxic, partial curve] | inconclusive: 20.6 µM [cytotoxic, partial curve]
4 | COc1cc(O)cc(/C=C/c2cccc(O)c2)c1 | inconclusive: 4.11 µM [cytotoxic, full curve] | inconclusive: 3.66 µM [cytotoxic, full curve]
5 | Nc1ccncc1N | inconclusive: 0.0009 µM | inconclusive: 0.0009 µM
6 | CC(=O)O[C@H]1CC[C@@]2(C)C(=CC[C@@H]3[C@@H]2CC[C@]2(C)C(C(C)=O)=CC[C@@H]32)C1 | inactive | inactive
7 | C=CC1(C)CC=C2C(CCC3C(C)(C(=O)O)CCCC23C)C1 (stereo unspecified) | inconclusive: 29.1 µM [cytotoxic, single point] | inconclusive: 25.9 µM [cytotoxic, single point]
8 | Cc1ccccc1C#Cc1ccc(CCC(=O)O)cc1 | inconclusive: 29.1 µM [cytotoxic, single point] | inconclusive: 2.31 µM [cytotoxic, partial curve, poor fit]
9 | COc1ccc(NC(=O)c2ccc(-c3ccc(-c4nnc(C)o4)cc3C)cc2)cc1N1CCN(C)CC1 | active: 23.1 µM | inconclusive: 20.6 µM [cytotoxic, partial curve]
10 | O=C(C1CCCCC1)N(CCN1CCN(c2ccccc2O)CC1)c1ccccn1 | inconclusive: 13 µM [cytotoxic, partial curve] | inconclusive: 16.4 µM [cytotoxic, partial curve]
11 | C=C1C(=O)O[C@@H]2/C=C(/C)CC3C=C(C[C@H](OC(=O)/C(C)=C\C)[C@@H]12)C(=O)O3 (stereo partly specified) | inconclusive: 3.6 µM [cytotoxic, full curve] | active: 2.55 µM
12 | C/C(=C\C=C\C(C)C1CCC2(C)C3CCC4C(C)(C)C(=O)CCC45CC35CCC12C)C(=O)O (stereo unspecified) | inactive | active: 6.32 µM
13 | Cc1cccc(C)c1NC(=O)CC12CCCN1CCC2 | inactive | inactive
14 | O=C1CC(c2ccc([N+](=O)[O-])cc2)=NN1c1ccccc1 | inconclusive: 29.1 µM [cytotoxic, single point] | inconclusive: 20.6 µM [cytotoxic, partial curve, poor fit]
15 | COc1cc(=C2C=c3ccccc3=N2)[nH]/c1=C/c1[nH]c(C)cc1C | inconclusive: 0.742 µM [cytotoxic, full curve] | inconclusive: 0.525 µM [cytotoxic, full curve]
16 | O=C1OC(/C=C/c2ccccc2)=NC/1=C\c1cccnc1 | inactive | inactive
17 | CC(=O)O[C@H]1C[C@H](OC(C)=O)[C@]2(C)[C@H](CC[C@@]34O[C@@H]3C3=C(C)C(=O)O[C@@H]3C[C@H]42)C1(C)C | inconclusive: 6.32 µM [cytotoxic, partial curve, poor fit] | inconclusive: 7.09 µM [cytotoxic, partial curve, poor fit]
18 | COc1ccc(/C=C/C(=O)Nc2ccccc2C(=O)O)cc1OC | inconclusive: 32.6 µM [cytotoxic, single point] | inactive
19 | CC(=O)OCC1OC(O[C@H]2CC[C@@]3(C)C(CC[C@]4(C)C3CC=C3[C@@H]5CC(C)(C)CC[C@]5(C(=O)O)CC[C@]34C)[C@]2(C)CO)C(O)C(O)C1OC1OC(C)C(O)C(OC2OCC(O)C(O)C2O)C1O (stereo partly specified) | inconclusive: 6.93 µM [cytotoxic, single point] | inconclusive: 6.93 µM [cytotoxic, single point]

Row | SMILES | Potency [1] | Potency [2]
20 | CC1C(OC(=O)c2ccccc2)C(O)C2C(C(=O)O)=COC(OC3OC(CO)C(O)C(O)C3O)C12 (stereo unspecified) | inactive | inactive
21 | COc1c(C)c(OCC=C(C)C)cc2c1CNC2=O | inconclusive: 29.1 µM [cytotoxic, single point] | inconclusive: 23.1 µM [cytotoxic, partial curve, poor fit]
22 | CC(=O)C1CCC2(C)C3=C(CCC12C)C1(C)CCC(=O)C(C)(C)C1CC3 (stereo unspecified) | inconclusive: 12.8 µM [cytotoxic, partial curve] | inconclusive: 16.1 µM [cytotoxic, partial curve, poor fit]
23 | CC(=O)O[C@@H]1C[C@]2(C)[C@@]3(CCC4[C@@]5(C)CC[C@H](O[C@@H]6O[C@H](C(=O)O)[C@@H](O)[C@H](O[C@@H]7O[C@H](CO)[C@H](O)[C@H](O)[C@H]7O[C@@H]7O[C@@H](C)[C@H](O)[C@@H](O)[C@H]7O[C@@H]7OC[C@](O)(CO)[C@H]7O)[C@H]6O[C@@H]6O[C@H](CO)[C@H](O)[C@H](O)[C@H]6O)C(C)(C)C5CC[C@]42C)O[C@@H](O)[C@]12C3CC(C)(C)[C@@H](OC(=O)/C=C/c1ccc(O)c(O)c1)[C@@H]2OC(=O)/C=C/c1ccccc1 (stereo partly specified) | inconclusive: 6.16 µM [cytotoxic, single point] | inconclusive: 3.89 µM [cytotoxic, single point]
24 | CCOC(=O)[C@H](CCc1ccccc1)N[C@@H](C)C(=O)N1C(=O)N(C)C[C@H]1C(=O)O | inactive | inactive
25 | COc1cc(/C=C/C(=O)OC[C@H]2O[C@H](O[C@]3(CO)O[C@H](CO)[C@@H](O)[C@@H]3O)[C@H](O)[C@@H](O)[C@@H]2O)cc(OC)c1O | inconclusive: 3.55 µM [cytotoxic, full curve, poor fit] | inactive
26 | Nc1c(Br)cc(Br)cc1CNC1CCC(O)CC1 (stereo unspecified) | inconclusive: 25.9 µM [cytotoxic, single point] | inconclusive: 29.1 µM [cytotoxic, single point]
27 | C=CC(C)(CC/C=C(\C)C(=O)OC)OC1OC(COC(=O)CC(C)(O)CC(=O)O)C(O)C(O)C1O (stereo unspecified) | inactive | inactive
28 | C=CC(C)(O)CCC1C(C)(O)CCC2C(C)(C)CCCC21C (stereo unspecified) | inconclusive: 20.2 µM [cytotoxic, single point] | inconclusive: 9.04 µM [cytotoxic, partial curve]
29 | COc1ccc(/C=C\C(=O)O)c(O[C@@H]2O[C@H](CO)[C@@H](O)[C@H](O)[C@H]2O)c1 | inactive | inactive
30 | C/C=C(/C)C(=O)OC1CC(C)(C)CC2C3=CCC4C5(C)CCC(O[C@@H]6O[C@H](C(=O)O)[C@@H](O)[C@H](O)[C@H]6O[C@@H]6O[C@H](CO)[C@H](O)[C@H](O[C@@H]7OC[C@H](O)[C@H](O)[C@H]7O[C@@H]7O[C@H](CO)[C@@H](O)[C@H](O)[C@H]7O)[C@H]6O)C(C)(C)C5CCC4(C)C3(C)C(O)C(O)C12CO (stereo partly specified) | inconclusive: 4.36 µM [cytotoxic, single point] | inconclusive: 2.75 µM [cytotoxic, single point]
31 | O=C1CC2(CCCC2)CC(=O)N1CCCCN1CCN(c2ncccn2)CC1 | active: 9.44 µM | inconclusive: 29.9 µM [cytotoxic, single point]
32 | CCOC(=O)C1(CCOc2ccccc2)CCN(Cc2ccc(O)c(Cl)c2)CC1 | inconclusive: 20.6 µM [cytotoxic, partial curve] | inconclusive: 14.6 µM [cytotoxic, partial curve]
33 | C[N+]1(C)[C@@H]2CC(OC(=O)[C@H](CO)c3ccccc3)C[C@H]1[C@@H]1O[C@@H]12 (stereo partly specified) | inconclusive: 3.8 nM [cytotoxic, full curve, poor fit] and inactive | inactive
34 | Nc1nc(-n2cc(C(=O)O)c(=O)c3cc(F)c(N4CC(O)C4)c(Cl)c32)c(F)cc1F | inconclusive: 11.4 µM [cytotoxic, single point] | inconclusive: 4.04 µM [cytotoxic, full curve]
35 | CC1(C)[C@@H]2CC=C(CO[C@@H]3O[C@H](CO[C@@H]4OC[C@H](O)[C@H](O)[C@H]4O)[C@@H](O)[C@H](O)[C@H]3O)[C@H]1C2 | inconclusive: 15.9 µM [cytotoxic, single point] | inactive
36 | Cn1nc(C(C)(C)C)cc1C(=O)N[C@@H](Cc1cccc(Cl)c1)C(=O)NCC#N | inconclusive: 14.6 µM [cytotoxic, partial curve] | active: 13 µM
37 | COc1ccc(C2COc3cc(O)ccc3C2)c(O)c1 (stereo unspecified) | inconclusive: 29.1 µM [cytotoxic, single point] | inconclusive: 23.1 µM [cytotoxic, single point]
38 | C[C@@H]1CC[C@]2(C(=O)O)CC[C@]3(C)C(=CCC4[C@@]5(C)CC[C@H](O)C(C)(C)C5C(O)C[C@]43C)[C@@H]2[C@]1(C)O (stereo partly specified) | inconclusive: 14.2 µM [cytotoxic, single point] | inconclusive: 6.32 µM [cytotoxic, partial curve, poor fit]
